Assay results taken from PubChem BioAssay AID1347073 (National Center for Advancing Translational Sciences (NCATS), 2019).
Out of some 45,000 compounds screened, about 200 (0.44%) were called active. Another 7% or so got no clear call; they are omitted. Calls follow the shape of the dose curve; as a rule, active = well fitted activation curve with a large enough effect; inconclusive = small, poorly fitted or top-dose-only effect; inactive = no such curve, though single readings can be large or run the other way. Some of the results follow.

assay: qHTS of TDP-43 Inhibitors: NCGC Sytravon Library Screen; conditions: yeast TDP-43 toxicity rescue, BacTiter-Glo growth, 24 h; series mostly up to 46.1 µM; growth rescue (activation): at the top concentration; also: 0% is about no effect; nearly all actives have a fitted effect of over 55% in size
Summary of the method: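 TDP-43-expressing yeast, pregrown in raffinose, seeded at OD600 0.02 in galactose medium with compound for 24 hr at 30 deg C. Growth read by BacTiter-Glo luminescence, so rescue of toxicity appears as activation.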

| Compound | growth rescue (activation) |
| --- | --- |
| CCCCn1c(O)c(/C=C2\C=Nc3ccccc32)c(=O)[nH]c1=O | inactive: -4.23% |
| COc1ccc2c(c1)C(C)=CC(C)(C)N2S(=O)(=O)c1ccc(Br)cc1 | inactive: 30.5% |
| Cc1ccc(S(=O)(=O)Nc2c(O)c3ccccc3oc2=O)cc1C | inactive: 14.4% |
| CCCCn1c(SCC(=O)c2ccc3c(c2)OCCO3)nnc1-c1ccoc1C | inactive: 20.7% |
| O=C(c1ccco1)N1CCN(c2cc(=O)n(C3CCCCC3)c(=O)[nH]2)CC1 | inactive: 21.8% |
| CCCSc1ncc(Cl)c(C(=O)Nc2ccc(S(=O)(=O)N3CCC(C)CC3)cc2)n1 | inactive: 8.37% |
| O=C1c2ccccc2C(=O)C1c1ccc(Cl)cc1 | inactive: 14.2% |
| COC(=O)C(C)Sc1nc2c(c(=O)n(C)c(=O)n2C)n1Cc1cccc(C)c1 (stereo unspecified) | inactive: 34.7% |
| CCCn1c(N)c(C(=O)CSc2nnnn2-c2ccc(O)cc2)c(=O)n(C)c1=O | inactive: -4.46% |
| O=C(Nc1ccccc1Cl)c1cc(C2CCCCN2C(=O)CCCc2ccccc2)on1 (stereo unspecified) | inactive: 2.28% |
| Cc1ccc(/C=C(\C#N)C(=O)Nc2ccc(Br)cc2)o1 | inactive: 11.7% |
| CN1CCC(C)(C(=O)Nc2ccc3c(c2)OCCO3)C1 (stereo unspecified) | inactive: 0.295% |
| O=C(Nc1ccc(Cl)cc1)c1cccc(S(=O)(=O)Nc2ccccn2)c1 | inactive: 10.1% |
| CC1CCCC(NC(=O)COC(=O)c2cccc(NS(=O)(=O)/C=C/c3ccccc3)c2)C1C (stereo unspecified) | inactive: 6.31% |
| CSCCC1NC(=O)N(CC(=O)Nc2cccc(S(=O)(=O)N3CCCCCC3)c2)C1=O (stereo unspecified) | inactive: -3.62% |
| O=C(CCNS(=O)(=O)c1cccc(Cl)c1)OCC(=O)N1CCN(C(=O)c2ccco2)CC1 | inactive: 12.6% |
| COc1ccc(CNC(=O)COC(=O)/C=C/c2cccs2)cc1 | inactive: -6.5% |
| C=CCC1(C#N)C(=S)NC2=C(C(=O)CC(C)(C)C2)C1c1ccc(Br)cc1 (stereo unspecified) | inactive: -0.442% |
| CCOC(=O)CSc1nnc(COc2ccc3ccccc3c2)o1 | inactive: 2.6% |
| Cc1cc(C)cc(NC(=O)N2CCCCCCC2)c1 | inactive: -14.4% |
| CCCCN(C(=O)CN1CCOCC1)c1c(N)n(CC(C)C)c(=O)[nH]c1=O | inactive: -12.3% |
| COc1ccc(NC(=O)NNC(=O)CCC(=O)Nc2ccccc2Cl)cc1 | inactive: 1.54% |

| Compound | growth rescue (activation) |
| --- | --- |
| Cc1cc(C)cc(NC(=S)NCc2ccc(F)cc2)c1 | inactive: 4.84% |
| COc1ccc(CC(=S)N2CCOCC2)cc1F | inactive: 31.3% |
| Cn1nccc1C(=O)OCC(=O)Nc1ccccc1 | inactive: -1.82% |
| Nc1nc(NS(=O)(=O)c2ccc(Cl)cc2)nn1-c1ccccc1 | inactive: 11.4% |
| C=CCNC(=S)/C(=C(\[O-])c1ccc(Cl)cc1)[n+]1ccccc1 | inactive: 24.3% |
| CN(C(=O)CCc1nnc(Cc2ccc(-c3ccccc3)cc2)o1)C1CCOCC1 | inactive: 4.94% |
| Cc1cc(=O)oc2cc(NC(=O)C(C)N3C(=O)C4CCCCC4C3=O)ccc12 (stereo unspecified) | inactive: 18.4% |
| CC1CN(C(=O)COC(=O)c2cc([N+](=O)[O-])ccc2Cl)CC(C)O1 (stereo unspecified) | inactive: 8.99% |
| CCCCOc1ccc(C2CCC(C(C)=O)C(C)C2)cc1 (stereo unspecified) | inactive: 5.37% |
| CC(CC(=O)O)CC(=O)Nc1cc([N+](=O)[O-])ccc1O (stereo unspecified) | inactive: -5.05% |
| COc1ccc2c(C)cc(SCC(=O)N3CCOCC3)nc2c1 | inactive: 43.2% |
| Cc1ccccc1-c1nnc(SCC(=O)N(C)c2ccccc2)o1 | inactive: 28.9% |
| COc1cccc(CNC(=O)CCC2CCCN(C(=O)c3ccc(C)nc3)C2)c1 (stereo unspecified) | inactive: 7.47% |
| NS(=O)(=O)c1ccc(CNC(=O)c2cc(-c3ccccc3)nc3ccccc23)cc1 | inactive: 20.4% |
| CC(C)c1ccc(S(=O)(=O)c2cnc(=S)[nH]c2N)cc1 | inactive: 1.93% |
| CC1CC(C)(C)NC(=S)N1CCC(=O)N1c2ccccc2CC1C (stereo unspecified) | inactive: 9.47% |
| CCc1ccc(NS(=O)(=O)c2ccc3[nH]cc(C(=O)N4CCc5ccccc54)c(=O)c3c2)cc1 | inactive: 4.82% |
| CCCN(CCC)C(=O)Cn1c(=O)n(CCCCCC(=O)Nc2ccccc2)c(=O)c2sccc21 | inactive: -5.71% |
| CCCC(=O)Nc1ccccc1NC(=O)c1ccc(OC(C)=O)cc1 | inactive: -5.08% |
| COc1ccccc1/C=N/NC(=O)NC12CC3CC(CC(C3)C1)C2 | inactive: 10.4% |
| CN(CC(=O)Nc1ccccc1Cl)C(=O)c1ccc(Cl)c(S(=O)(=O)N2CCCCCC2)c1 | inactive: 22.5% |
| O=C(CSc1nnc(-c2ccncc2)o1)Nc1cc(Cl)ccc1C(=O)O | inactive: -1.16% |

| Compound | growth rescue (activation) |
| --- | --- |
| Cc1cccc(CN2CCN(c3nc4nonc4nc3NC3CC3)CC2=O)c1 | inactive: 4.99% |
| O=C(Nc1ccc(S(=O)(=O)Nc2ncccn2)cc1)C12CC3CC(CC(Cl)(C3)C1)C2 | inactive: -1.39% |
| CC(C)(C)c1cc(CN2CCN(CCC#N)CC2)cc(C(C)(C)C)c1O | inactive: 11.7% |
| CCOC(=O)N1CCC(N(CCN(C)C)C(=S)Nc2cc(Cl)ccc2C)CC1 | inactive: 10.9% |
| O=C(/C=C/Nc1cccc(C(F)(F)F)c1)c1ccco1 | inactive: -11% |
| N#CC(c1ccc(=O)[nH]n1)c1ccc(Cl)cc1Cl (stereo unspecified) | inactive: -3.32% |
| Cc1ccc(C(=O)NCc2ccncc2)cc1S(=O)(=O)N1CCCCC1 | inactive: 13.1% |
| COc1ccc2oc(=O)c(-c3nnc(NCc4ccco4)s3)cc2c1 | inactive: 13.8% |
| COc1ccc(NC(=O)CNS(=O)(=O)c2ccc3nc(C)sc3c2)c(OC)c1 | inactive: 24.5% |
| O=C(COC(=O)/C=C/c1ccc(OC(F)F)cc1)Nc1ccc2[nH]c(=O)[nH]c2c1 | inactive: 23.6% |
| CCN(CC)S(=O)(=O)c1cccc(NC(=O)COC(=O)/C=C/c2cccs2)c1 | inactive: 13% |
| O=C(Cc1cccs1)N/N=C/c1ccccc1 | inactive: 7.2% |
| O=C(Cn1c(=O)cnc2ccccc21)Nc1cc(Cl)ccc1N1CCOCC1 | inactive: 19.5% |
| CCn1c(SCC(=O)NC2CCCC2)nnc1C(C)C | inactive: -3.54% |
| CNC(=S)N(CCCn1ccnc1)Cc1c(F)cccc1Cl | inactive: 3.16% |
| O=C(NCc1ccccc1)C(c1ccc(O)cc1)N(C(=O)c1cnccn1)c1ccccc1 (stereo unspecified) | inactive: 11.5% |
| O=C(/C=C/c1ccc(Cl)cc1)N(Cc1ccccc1)c1ccccn1 | inactive: -8.06% |
| CCOc1ccc(NC(=O)Nc2ccc(Cc3ccncc3)cc2)cc1 | inactive: 6.79% |
| NC(=O)c1ccc(Oc2ccc(Cl)c3ccccc23)c([N+](=O)[O-])c1 | inactive: 11.2% |
| Cc1ccc(N(C)C(=O)c2ccc(CNc3c(N4CCC(C)CC4)c(=O)c3=O)cc2)cc1 | inactive: 28.9% |
| Cc1cc(NS(=O)(=O)c2ccc(NC(=S)NCc3ccccc3)cc2)no1 | inactive: 9.25% |
| Cc1ccc(N(C(C)C(=O)NCc2ccncc2)S(C)(=O)=O)cc1C (stereo unspecified) | inactive: -0.202% |

| Compound | growth rescue (activation) |
| --- | --- |
| COc1cc(OC)cc(C(=O)NC(C)c2ccc(Br)cc2)c1 (stereo unspecified) | inactive: 13.1% |
| Cc1ccc(S(=O)(=O)N2CCCCC2)cc1C(=O)NCc1ccncc1 | inactive: -6.9% |
| Cc1ccc(NC(=O)C(C)NS(=O)(=O)c2ccc(F)cc2)cc1C (stereo unspecified) | inactive: 2.18% |
| Cc1occc1C(=O)N/N=C/c1ccccc1[N+](=O)[O-] | inactive: 0.81% |
| CCNC(=O)C1CCCN(C(=O)c2cccc3ccccc23)CC1 (stereo unspecified) | inactive: -13.5% |
| CCOC(=O)/C(C#N)=C/c1cc2cc(C)c(C)cc2nc1Cl | inactive: 22.3% |
| CC1CCN(c2ccc(/C=C(\C#N)c3nn(-c4ccccc4)c(N)c3C#N)cc2[N+](=O)[O-])CC1 | inactive: 0.0447% |
| O=C(/C=C/c1ccco1)N(Cc1ccc(F)cc1)C1CCS(=O)(=O)C1 (stereo unspecified) | inactive: -8.81% |
| COc1ccc(NC(C)=O)cc1S(=O)(=O)Nc1ccccc1C(=O)NCCc1ccccc1 | inactive: 3.31% |
| O=C(N/N=C/C(Br)=C/c1ccccc1)c1cccs1 | inactive: 12.9% |
| Cc1ccc(C(C)(C)C)cc1S(=O)(=O)N1CC(=O)Nc2ccccc21 | inactive: -3.78% |
| CC(=O)c1sc(NC(=O)C2=NN(c3ccccc3)C(=O)CC2)nc1C | inactive: 4.02% |
| COc1ccc(CC(=O)Nc2cc(S(=O)(=O)N3CCOCC3)ccc2N2CCCC2)cc1OC | inactive: -5.75% |
| Cc1cc(-c2ccccc2)nc(N/N=C/c2ccc(O)cc2O)n1 | inactive: 1.93% |
| CC(=O)Nc1cccc(-c2csc(C(C)(NC(C)=O)c3ccccc3)n2)c1 (stereo unspecified) | inactive: -6% |
| CCc1ccc(CNC(=O)C2CCN(c3nnc(-n4c(C)ccc4C)s3)CC2)cc1 | inactive: 19.9% |
| COc1ccc(/C=C(\NC(=O)c2ccccc2)C(=O)NCc2ccco2)cc1OC | inactive: 11.6% |
| CCCn1c(=O)c2ccccc2n2c(SC(C)C(N)=O)nnc12 (stereo unspecified) | inactive: 9.9% |
| NC(=O)C[N+]1(CC#CC(O)(c2ccccc2)c2ccccc2)CCCC1 | inactive: -3.2% |
| NC(=O)c1ccsc1NC(=O)CSc1nncs1 | inactive: 12.1% |
| COc1cccc(C(O)c2nc(-c3cccc(C(=O)O)c3)cs2)c1 (stereo unspecified) | inactive: 15.7% |
| CCOC(=O)N1CCN(C(=O)C2CCN(Cc3ccc(OC)cc3OC)CC2)CC1 | inactive: -3.46% |

| Compound | growth rescue (activation) |
| --- | --- |
| Cc1ccc(S(=O)(=O)N2CCN(C(=O)CC(C)C)CC2)cc1 | inactive: -10.5% |
| Cc1cc(NC(=O)c2ccc(F)cc2)ccc1NC(=O)c1ccco1 | inactive: 2.22% |
| Cc1cccc2cc(CN(CCN(C)C)C(=S)NCc3ccco3)c(=O)[nH]c12 | inactive: 14.8% |
| COCCOC(=O)c1[nH]c2c(c1C)C(=O)CC(c1cc(OC)c(OC)c(OC)c1)C2 (stereo unspecified) | inactive: 7.8% |
| Cc1ccc(C2=[N+]([O-])C(C)(C)N(O)C2(C)C)cc1 | inactive: -2.17% |
| COc1ccc(CCNC(=O)CNC(=O)Cn2ccc3ccccc3c2=O)cc1OC | inactive: 8.86% |
| CC(C)[C@H](NC(=O)c1ccccc1F)C(=O)NCCc1ccccc1 | inactive: 7.98% |
| CCCCc1nnc2c(N(C)S(=O)(=O)c3ccc(C)cc3)nc3ccccc3n12 | inactive: -5.87% |
| CCCn1c(=N)c(S(=O)(=O)c2ccccc2)cc2c(=O)n3cccc(C)c3nc21 | inactive: -5.46% |
| Oc1cccc(NC(=S)N=Nc2c(O)[nH]c3ccccc23)c1 | inactive: 2.47% |
| COCC(=O)N(Cc1cc2ccccc2[nH]c1=O)c1ccccc1OC | inactive: 5.24% |
| CC1=C(C(=O)OCC2CCCO2)C(c2ccc(Cl)c(Cl)c2)NC(=O)N1 (stereo unspecified) | inactive: -11% |
| COc1ccc(C2CCCN2C(=S)Nc2ccc(C)cc2C)cc1OC (stereo unspecified) | inactive: 18.9% |
| Cc1noc(C)c1C(=O)N1CCCC(C)(C(=O)NS(=O)(=O)C2CC2)C1 (stereo unspecified) | inactive: 10.2% |
| CCc1ccccc1Nc1nc2ccccc2n1C | inactive: -5.04% |
| CC(OC(=O)c1cccnc1)C(=O)Nc1ccc2c(c1)OCO2 (stereo unspecified) | inactive: -7.59% |
| Cc1cc(O)ccc1Nc1nc(-c2cccs2)cs1 | inactive: -80.2% |
| O=C(Nc1ccc(F)c(Cl)c1)c1csc([C@H]2C[C@H](O)[C@@H](CO)O2)n1 | inactive: 5.95% |
